Data as given in the supplement of paper PMC9135407.
Values joined by “and” are separate entries in the source; they are usually repeats but may differ in a detail not shown here. Identical values can stand only once. Counter-ions that a name gives are not always drawn. About 620 (11%) of roughly 5,800 compounds showed activity.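 Rule for the calls: active = score above a cut-off or among the top three wells of a plate; in these data no inactive exceeds 0.85.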 The entries are a selection whose mix differs from that of the whole data set.

System: primary human hepatic stellate cells (donor 1)
Assay: scaled lipid accumulation score (0 = DMSO-like, 1 = nortriptyline-like); higher = stronger HSC inactivation (lipid re-accumulation), active = hit call of the paper
Conditions: 48 h
[1] = library stock concentration: 10 mM
[2] = library stock concentration: 3.33 mM
[3] = library stock concentration: 1 mM

CCCCC/C=C\C\C=C/C=C/C=C/CC(=O)CCCC(=O)O [5-Ketoeicosatetraenoic acid]
scaled lipid accumulation score (library stock concentration: 100 uM): inactive: ≤ -0.021

COc1cc(CC(=O)O)ccc1O [4-Hydroxy-3-methoxyphenylacetic acid]
scaled lipid accumulation score [1]: inactive: ≤ -0.07

Cc1cc(CC(C)CC(C)(C)C)n(O)c(=O)c1 (stereo not drawn)
scaled lipid accumulation score [1]: inactive: 0.435

C=CC[N@@+]12CC[C@@]34c5ccccc5N5/C=C6/[C@H]7C[C@H]8[C@@]9(CC[N@@+]8(CC=C)C/C7=C/CO)c7ccccc7N(/C=C(/[C@@H](C[C@@H]31)/C(=C\CO)C2)[C@H]54)[C@@H]69 [Alcuronium chloride]
scaled lipid accumulation score: inactive: ≤ 0

CN1CCC[C@H]1c1cccnc1 [Nicotine ditartrate]
scaled lipid accumulation score [1]: inactive: 0.046

CN1CCC[C@H]1c1cccnc1
scaled lipid accumulation score [1]: inactive: ≤ 0

O=S(=O)(O)CCSSCCS(=O)(=O)O [Dimesna]
scaled lipid accumulation score [2]: inactive: ≤ 0
scaled lipid accumulation score [1]: inactive: ≤ 0

O=S(=O)(O)CCSSCCS(=O)(=O)O
scaled lipid accumulation score [1]: inactive: ≤ 0

CO[C@H]1C(=O)[C@]2(C)[C@@H](OC)C[C@H]3OC[C@@]3(OC(C)=O)[C@H]2[C@H](OC(=O)c2ccccc2)[C@]2(O)C[C@H](OC(=O)[C@H](O)[C@@H](NC(=O)OC(C)(C)C)c3ccccc3)C(C)=C1C2(C)C [Cabazitaxel]
scaled lipid accumulation score [2]: inactive: ≤ 0
scaled lipid accumulation score [1]: inactive: ≤ 0

CCCC(C(=O)OCCN(CC)CC)(c1ccccc1)c1ccccc1 [SKF-525A hydrochloride]
scaled lipid accumulation score [1]: inactive: 0.355

CCCC(C(=O)OCCN(CC)CC)(c1ccccc1)c1ccccc1 [Proadifen hydrochloride]
scaled lipid accumulation score: inactive: 0.228
scaled lipid accumulation score (library stock concentration: 5.1 mM): inactive: 0.536
scaled lipid accumulation score [1]: inactive: 0.511

CN1CCN(C2=Nc3cc(Cl)ccc3Nc3ccccc32)CC1
scaled lipid accumulation score [1]: active: 0.854

C[C@H](CCC(=O)NCC(=O)O)[C@H]1CC[C@H]2[C@@H]3[C@H](O)C[C@@H]4C[C@H](O)CC[C@]4(C)[C@H]3C[C@H](O)[C@]12C [Glycocholic acid]
scaled lipid accumulation score: inactive: ≤ 0

Cc1cc(N2CCOCC2)cc2[nH]c(-c3c(NCC(O)c4cccc(Cl)c4)cc[nH]c3=O)nc12 (stereo not drawn)
scaled lipid accumulation score [2]: inactive: ≤ 0
scaled lipid accumulation score [1]: inactive: 0.182

Clc1ccc(COC(Cn2ccnc2)c2ccc(Cl)cc2Cl)cc1 (stereo not drawn) [Econazole nitrate]
scaled lipid accumulation score: inactive: 0.345
scaled lipid accumulation score [2]: inactive: ≤ 0
scaled lipid accumulation score (library stock concentration: 4.5 mM): inactive: 0.208
scaled lipid accumulation score [1]: inactive: ≤ 0

Clc1ccc(COC(Cn2ccnc2)c2ccc(Cl)cc2Cl)cc1 (stereo not drawn) [Econazole Nitrate]
scaled lipid accumulation score [1]: inactive: 0.346

CCCCCCCC/C=C\CCCCCCCCCCCC(=O)O [13(Z)-Docosenoic Acid]
scaled lipid accumulation score [3]: inactive: 0.016

NC(=O)NO [Hydroxyurea]
scaled lipid accumulation score [2]: inactive: ≤ 0
scaled lipid accumulation score [1]: inactive: ≤ 0 and inactive: ≤ -0.07
scaled lipid accumulation score (library stock concentration: 26.3 mM): inactive: ≤ -0.001

CO/N=C1\CN(c2nc3c(cc2F)c(=O)c(C(=O)O)cn3C2CC2)CC1CN (stereo not drawn) [Gemifloxacin mesylate]
scaled lipid accumulation score [1]: inactive: ≤ -0.027

Cc1cc(C(=O)Nc2cc(Nc3ccc4c(/C=C/c5ccccn5)n[nH]c4c3)ccc2F)n(C)n1
scaled lipid accumulation score [1]: active: 1.61

CN(C)CCOc1ccc(-c2nc(-c3ccncc3)c(-c3ccc4c(c3)CCC4=NO)[nH]2)cc1
scaled lipid accumulation score [2]: active: 1.06

O=C(O)c1ccc(N2C(=O)C(=Cc3ccc(-c4ccc([N+](=O)[O-])cc4)o3)C=C2c2ccccc2)cc1
scaled lipid accumulation score [2]: inactive: 0.129
scaled lipid accumulation score [1]: inactive: 0.284

CCN(CC)C(=O)CCC/C=C\C[C@@H]1[C@@H](/C=C/[C@@H](O)CCc2ccccc2)[C@H](O)C[C@@H]1O [17-phenyl trinor Prostaglandin F2.alpha. diethyl amide]
scaled lipid accumulation score [3]: inactive: ≤ 0

CC[C@]1(O)C[C@@H]2CN(CCc3c([nH]c4ccccc34)[C@@](C(=O)OC)(c3cc4c(cc3OC)N(C)[C@H]3[C@@](O)(C(=O)OC)[C@H](OC(C)=O)[C@]5(CC)C=CCN6CC[C@]43[C@@H]65)C2)C1 [Vinblastine]
scaled lipid accumulation score [2]: inactive: 0.782

Cc1cc(CS(=O)(=O)c2ccccc2)cc(OCc2ccc(CN3CCC[C@@H]3CO)cc2)c1
scaled lipid accumulation score [2]: inactive: ≤ -0.009

CC(C)(C)C(O)/C=C/c1ccc2c(c1)OCO2 (stereo not drawn) [Stiripentol]
scaled lipid accumulation score [1]: inactive: ≤ 0

Nc1cc(N2CCCCC2)nc(N)[n+]1OS(=O)(=O)[O-] [Minoxidil sulfate]
scaled lipid accumulation score (library stock concentration: 17.3 mM): inactive: ≤ -0.021

CC(/C=C/C(=O)NO)=C\[C@@H](C)C(=O)c1ccc(N(C)C)cc1 [Trichostatin A]
scaled lipid accumulation score [3]: active: 0.793

CCCCC(CC)COC(=O)c1ccccc1O (stereo not drawn) [Octisalate]
scaled lipid accumulation score (library stock concentration: 8 mM): inactive: 0.01

Cc1c(C)c2c(c(C)c1O)CC[C@@](C)(CCC[C@H](C)CCC[C@H](C)CCCC(C)C)O2 (racemic) [Tocopherol (R,S)]
scaled lipid accumulation score: inactive: ≤ 0

CCN(CCCc1ccccc1)CCCc1ccccc1 [Alverine citrate salt]
scaled lipid accumulation score: inactive: 0.597

CCN(CCCc1ccccc1)CCCc1ccccc1 [Alverine citrate]
scaled lipid accumulation score [1]: inactive: 0.417
